Data published in paper PMC12040169 (PLOS Biology, 2025).
The other results are listed elsewhere or left out.

system: T1, C. trachomatis L2/434/Bu expressing GFP (CTL2-GFP); design: species or system HeLa; C. trachomatis total inclusion area by high-content imaging, normalised to DMSO; settings: total inclusion area; 28.5 h, 10 µM; inhibitor
T1 construct: L2/434/Bu GFP intracellular growth in HeLa cells
Procedure, shortened: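 Following bulk GFP and resorufin fluorescence reads, infected cells were fixed, Hoechst-stained and imaged on a high-content platform. Inclusion total area and number per well served as growth proxies; nuclei counts indicated host viability. MICs were derived as for the fluorescence assay.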

SMILES	% of control remaining
O=C(O)c1nn(-c2ccccc2)c2cc([N+](=O)[O-])ccc12 [CBK006532]	80.2104
COc1cc(/C=C2\SC(=S)N(CC(=O)NNC(=O)c3ccccc3O)C2=O)ccc1O [CBK261301]	96.9725
CN(C)CCNC(=O)c1ccc(-c2ccccc2S(=O)(=O)Nc2ccc(C(=O)O)c(O)c2)cc1 [CBK174050]	71.9287
Cc1cc(C)n(C(C)CNC(=O)c2cc(C3CC3)on2)n1 (stereo not shown) [CBK283243]	115.444
Cc1ccc(S(=O)(=O)NCCSCc2ccc(Cl)cc2)cc1[N+](=O)[O-] [CBK264056]	93.1244
O=S(=O)(c1cccc(F)c1)N1CCC(Cc2ccccc2)CC1 [CBK044828]	94.8203
COc1ccc(CCNCC2OCCc3cccc(OC)c32)cc1OC (stereo not shown) [CBK024032C]	63.9243
CCOc1ccccc1CN(C)c1cc(C2CC(N)C2)nc(N)n1 (stereo not shown) [CBK307308]	31.8636
OCCN(CCO)c1cncc(-c2cccc3ccccc23)n1 [CBK065812]	84.6497
O=C(O)CCc1ccc(-c2ccc(F)cc2)n1CC1CCCO1 (stereo not shown) [CBK268988]	109.034
Cc1ccccc1NC(=O)Nc1ccc(OCc2ccccc2)cc1 [CBK262861]	94.3948
Cc1cc(/C=N/NC(=O)C(=O)NCc2ccccn2)c(C)n1-c1cccc(Br)c1 [CBK263815]	107.562
CC(C)(C)OC(=O)NC1CCC(NCc2ccccc2Br)CC1 (stereo not shown) [CBK056684]	98.8013
CSCC(=O)N1C[C@@H]2C[C@H](C1)c1c(-c3ccc(NC(C)=O)cc3)ccc(=O)n1C2 [CBK289200]	106.39
Nc1cccc(-c2nc(NC(=O)c3ccncc3)cnc2-c2ccc(F)c(Cl)c2)c1 [CBK037573]	76.075
COc1cccc(-c2csc(NS(=O)(=O)c3ccc(C)c(C(=O)O)c3)n2)c1 [CBK299803]	39.6921
CN(C)C(=O)[C@@]1(O)CCC2(c3ccc(Cl)cc3)CCCN(C)C2C1 (stereo partly shown) [CBK005234]	10.4253
CCCCSc1nnc(-c2cc3c(C(F)(F)F)nn(C)c3s2)n1C [CBK019526]	77.2494
CC1=C[C@@H](CNS(C)(=O)=O)[C@H](C(C)C)C[C@H]1CC(=O)N1CCOCC1 [CBK289050]	108.007
CC(C)C(=O)Nc1cc2cccnc2nc1-c1ccccc1 [CBK073647]	117.257

SMILES	% of control remaining
Nc1nc(O)cc(C2CCN(CCOc3ccccc3F)C2)n1 (stereo not shown) [CBK304726]	54.9541
O=C1N=C(Nc2cccc(O)c2)S/C1=C1\C(=O)Nc2ccccc21 [CBK265549]	89.1234
O=C(NCCCn1ccnc1)c1cc(-c2ccc(Br)cc2)nc2ccccc12 [CBK262645]	19.0204
Cc1nn(CC(=O)N2CCCC2)c(=O)c2cc3ccsc3n12 [CBK284057]	104.849
Nc1ncc(-c2cncnc2)nc1NCC1CCOCC1 [CBK063877]	134.353
Cc1cc(CN2CCN(C(C)c3nc(C(C)(C)C)no3)CC2)no1 (stereo not shown) [CBK305641]	113.015
CCn1c(CC2CCN(c3nc(C)cc(C)c3C#N)CC2)nn(C)c1=O [CBK307027]	72.389
O=C(O)C[C@]1(C(=O)NC2CCCCCC2)CC(c2ccc(Cl)cc2)=NO1 [CBK286716]	66.4287
Oc1cccc(C(O)CNCc2ccc(OCc3ccc(Cl)cc3Cl)cc2)c1 (stereo not shown) [CBK267621C]	72.1909
Nc1ccc(-c2ncccc2O)cc1 [CBK262937C]	87.4735
CNS(=O)(=O)c1ccc(C)c(C(=O)N(C)Cc2cnn(C)c2)c1 [CBK304026]	63.5229
COc1ccc(F)cc1S(=O)(=O)N1CCCN(S(=O)(=O)c2cc(F)ccc2OC)CC1 [CBK266555]	101.834
C[C@@H](c1ccccc1)N1C(=O)[C@@H]2CN(C(=O)COCC(=O)O)CCN2C1=O [CBK289636]	130.31
Cc1cc(C)n(CCC(=O)N2CCC(c3ccncc3)CC2)n1 [CBK283529]	93.173
CCc1c(C)nc2c(C(=O)N3CCCC3COC)cnn2c1C (stereo not shown) [CBK162146]	70.0476
COc1ccc(OC(C)C(=O)O/N=C(\N)c2ccccn2)cc1 (stereo not shown) [CBK266669]	119.072
CCN(CC)C(=O)CNS(=O)(=O)c1ccc(OC)c(OC)c1 [CBK034499]	85.4974
CC(C)(C)NC(=O)N/N=C/c1[nH]ncc1Br [CBK017439]	57.6877
COC(=O)c1ccc(CN2CCCC2)cc1 [CBK029023]	114.168
O=C(CCn1c(C(F)(F)F)cc2cccnc21)N1CCCC1 [CBK284962]	90.629
